Assay results: PubChem BioAssay AID1508624 (National Center for Advancing Translational Sciences (NCATS), 2021)
The whole screen tested about 48,000 compounds, of which about 120 (0.25%) were called active. Inconclusive results (about 4%) are left out. Calls come from the whole dose curve; as a rule, active = well fitted activation curve with a large enough effect; inconclusive = small, poorly fitted or top-dose-only effect, or another doubt; inactive = no such curve, though single readings can be large or run the other way. This is one part of the list.
Potency is the fitted concentration of half-maximal effect.

Test: Primary qHTS for Identification of Small Molecule Activators of Huntingtin-Antisense Promoter Activity; note: nearly all actives have a fitted effect of over 55% in size
Conditions: HEK293 HTT-AS promoter firefly luciferase reporter (activity 0% = vehicle and -100% = no light), 24 h; series mostly up to 57.5 µM; activity change, positive = activation: at the top concentration
Procedure, shortened: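 HEK293 cells carrying firefly luciferase reporters were seeded at 2,500 per well in Opti-MEM and cultured for 24 h. They were then treated with compounds at up to 57.5 uM final for 24 h at 37 degrees C before Dual-Glo luminescence readout.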
With `COc1ccc(OC)c(NC(=O)c2c(NCc3cccs3)sc3c2CCCCC3)c1` the “activity change, positive = activation” value was inactive: -20.2%.
With `COc1ccc(-c2ccc(NS(=O)(=O)c3ccc(NC(C)=O)cc3)cc2)nn1` the “activity change, positive = activation” value was inactive: 16.9%.
With `COc1cccc(CN(C(=O)COc2ccc(Cl)c(C)c2)C2CCS(=O)(=O)C2)c1` (configuration not stated) the “activity change, positive = activation” value was inactive: -18%.
With `COc1ccc(C(=O)CC(=O)c2ccc(C(C)(C)C)cc2)cc1` the activity change, positive = activation was “inactive”.
For `Cc1ccc(C2CC(=O)n3nc(-c4ccc(Cl)cc4)nc3S2)cc1` (configuration not stated), the “activity change, positive = activation” value was inactive: -3.26%.
With `Cc1ccc(Sc2ccc(N3CCC(C(=O)Nc4cc(C)cc(C)c4)CC3)nn2)cc1` the “activity change, positive = activation” value was inactive: -12.1%.
For `Cc1c(Cl)cccc1-n1ncc(C(=O)NCCN2CCN(C)CC2)c1C1CCN(C(=O)OC(C)(C)C)CC1`, the “activity change, positive = activation” value was inactive: 11%.
With `O=C(Cn1c(=O)n(-c2ccccc2)c(=O)c2c3c(sc21)CCC3)c1ccc(F)cc1` the “activity change, positive = activation” value was inactive: -21.6%.
With `O=C(NCc1ccccc1)c1ccc2c(c1)N(Cc1ccccc1F)C(=O)c1ccccc1S2=O` (configuration not stated) the “activity change, positive = activation” value was inactive: -29.7%.
For `Cc1ccc(CNC(=O)CCS(=O)(=O)c2cc3c4c(c2)CCN4C(=O)CC3)cc1`, the “activity change, positive = activation” value was inactive: -2.56%.
In the case of `CCc1ccc(NC(=O)CSc2nc3c([nH]c4ccccc43)c(=O)n2-c2ccc(C)cc2)cc1`, the “activity change, positive = activation” value is reported as inactive: -36.5%.
For `Cc1ccccc1C(=O)c1ccc(Nc2ccc(Br)cc2N)cc1Cl`, the “activity change, positive = activation” value was inactive: -16.7%.
With `O=C(Nc1ccc(Cl)cc1)c1cnn2c1NC(c1ccccc1)=CC2c1ccccc1` (configuration not stated) the “activity change, positive = activation” value was inactive: -50%.
For `CCN(CC)c1cc(C)c2cc(NC(=O)c3ccc(OC)c(OC)c3)ccc2n1`, the “activity change, positive = activation” value was inactive: -19.6%.
For `CCOC(=O)c1scc(-c2ccccc2)c1S(=O)(=O)N1CCN(c2ccc(Cl)cc2)CC1`, the “activity change, positive = activation” value was inactive: -18.8%.
For `Cc1ccc(NC(=O)c2ccc(NC(=O)N3CCSc4ncccc43)cc2)c(Cl)c1`, the “activity change, positive = activation” value was inactive: -31.7%.
In the case of `COc1ccccc1C(=O)Nc1c(C(=O)Nc2cc(Cl)ccc2C)sc2nc(C)cc(C)c12`, the “activity change, positive = activation” value is reported as inactive: -10.8%.
In the case of `COc1cccc(N2CCN(C(=O)c3cnc4c(-c5ccccc5)c(C)nn4c3C)CC2)c1`, the “activity change, positive = activation” value is reported as inactive: -14.3%.
With `Cc1ccccc1NC(=O)NCCc1c[nH]c2ccccc12` the “activity change, positive = activation” value was inactive: -18.4%.
With `COc1ccc(-c2cc(C)no2)cc1S(=O)(=O)N1CCN(c2cccc(C)c2)C(C)C1` (configuration not stated) the “activity change, positive = activation” value was inactive: -56.7%.
With `O=C(Nc1ccccc1)c1cnc(N2CCCCC2)c2ccccc12` the “activity change, positive = activation” value was inactive: -39.4%.
With `Cc1cc(C)cc(OCC(=O)Nc2nc(-c3ccc(F)cc3)ns2)c1` the “activity change, positive = activation” value was inactive: 1.26%.
In the case of `Cc1cc(F)ccc1NC(=O)c1csc2c1CCC(C)C2` (configuration not stated), the Potency is reported as active: 3.16 µM.
For `Cc1ccccc1NC(=O)CSc1c(C(C)C)cnc2c1c(=O)n(C)c(=O)n2C`, the “activity change, positive = activation” value was inactive: -18%.
In the case of `COC(=O)c1cc(NS(=O)(=O)c2ccc3c(c2)OCCO3)ccc1Cl`, the “activity change, positive = activation” value is reported as inactive: -35.8%.
For `CCOc1ccccc1NC(=O)CSc1nc2ccccc2nc1N1CCOCC1`, the “activity change, positive = activation” value was inactive: -12.2%.
In the case of `CCc1ccc(NC(=O)CSc2nc3nc(C)cc(C)n3n2)cc1`, the “activity change, positive = activation” value is reported as inactive: -15.9%.
